From publication PMC12136788
This is one part of the list.

T1: UNK ZnF1-3 (human, UniProt Q9C0B0 31-174)
T1 sequence: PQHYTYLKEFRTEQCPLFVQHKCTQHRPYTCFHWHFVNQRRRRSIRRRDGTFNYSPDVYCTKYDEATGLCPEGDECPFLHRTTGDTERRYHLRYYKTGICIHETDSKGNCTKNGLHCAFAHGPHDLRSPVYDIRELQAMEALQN

B1: chr2:37325018:37325019:+_ENSMUSG00000035437_ENSMUST00000112920|perfect_dup|FALSE|FALSE (ssRNA)
RNA: GGGAGUUCUACAGUCCGACGAUCAUUAUUUGUAGAUGGUGUCUCAUCUCCUUGCCUGGAAACCAAGACAAAAUCUUCACUAUUAAGAGUAGAUACUGAGUCUGAAGAGACACUGAUUUUUCCAACAGAAGCCUUGUCAUCCAUCAACAGAGGAUUGAGCAUCA
B2: chr2:90620368:90620369:+_ENSMUSG00000008200_ENSMUST00000013759|mus_mus|motif|central (ssRNA)
RNA: GGGAGUUCUACAGUCCGACGAUCAGUGGCUUAUACUUAUUGCCACAUACUUAGGGGGGAAUUUCUCAAAACCAAGGAUCGGAACACCUGCUGCUUGCUGCUGCUCCUGCCUGUGCUGCAAAGCGAGCAUUCUAGGGUGUGUGUCAACAGAGGAUUGAGCAUCA
B3: chr10:33214929:33214930:-_ENSG00000150093_ENST00000302278|hu_hu|hu_hu_hu_mus_True|78_78 (ssRNA)
RNA: GGGAGUUCUACAGUCCGACGAUCAACAAGUUCAUUGAAAAACUCUCCUCUGUCAGUAAGACUGAGCACAUUUUUGUAGCUAAAUGGGCUGGUGCAGUUUUGUUCACUUGUACAAGGAUUUCUUAGCUUUGCUGGGGUUGUGCUCAACAGAGGAUUGAGCAUCA
B4: chr4:76721835:76721836:+_ENSG00000138768_ENST00000264904|hu_mus|hu_hu_hu_mus_True|28_108 (ssRNA)
RNA: GGGAGUUCUACAGUCCGACGAUCGUUGGCUGGGGUUUUCUGAGACGCUCUGGAAUAUAACUCAUGUUUGCUAAUAAAUCCUAGUUUCUCUAUGAAAUUCUCUUUGCAAUCCUCUUCCUCUAUUAGUUGCUUUAGUUUCUCUUUCAACAGAGGAUUGAGCAUCA
B5: chr9:124914678:124914679:-_ENSG00000119421_ENST00000373768|hu_hu|motif|central (ssRNA)
RNA: GGGAGUUCUACAGUCCGACGAUCGGGCUUAUCACAUUGAGCUCCAUAGUGAUGGGCCGCAGCUUUAAGCACAGCAGAACGGAUUUUCACCUCAUCUACUUUCAGCUCCUCUAGAGUGGGCAGCUCCACUAUCCCCGGCAUGACCAACAGAGGAUUGAGCAUCA
B6: chr15:76463590:76463591:-_ENSMUSG00000059323_ENSMUST00000168185|mus_hu|FALSE|FALSE (ssRNA)
RNA: GGGAGUUCUACAGUCCGACGAUCCCGGCUCUGAGCACUGCCCACACCCCGGAUGGCUGCCUGGUAGGCUGCCCGGCUGGUGCUGGCUGUGGCUGCUUCCCUGUUGCUGGCGGGGCCAGGCGUCCAGGCUGCCACCCGUUGUGCCAACAGAGGAUUGAGCAUCA
B7: chr18:33747085:33747086:+_ENSG00000134759_ENST00000351393|hu_mus|motif|central (ssRNA)
RNA: GGGAGUUCUACAGUCCGACGAUCAGACCAAAUGAUUCUACUAUGCACAGAAGUAAUUUUGUUGGUGAAUGCAAAGAGACGGAAAAAUGGAUCAAACUCCGAGGAAGUCGCAUCCUGUCUCUUCCACAAAGACCAGGUUCGAUCCAACAGAGGAUUGAGCAUCA
B8: chr16:94913438:94913439:+_ENSMUSG00000022897_ENSMUST00000122284|mus_mus|motif|central (ssRNA)
RNA: GGGAGUUCUACAGUCCGACGAUCCAGGGAUGUCAUGGAGUGGUGACUGUGGCCAACCUCCAUAGAAUCCUGGGUAGAGGAGCGGUUUGUUGGAGAAUUGUAGACCCUUGGCCUGGUCCGGUUACCCAAGGCUUGCUGUCCAUGCAACAGAGGAUUGAGCAUCA
B9: chr6:38652254:38652255:-_ENSG00000124767_ENST00000373365|hu_hu|hu_hu_hu_mus_False|1_108 (ssRNA)
RNA: GGGAGUUCUACAGUCCGACGAUCCGAAAACUUCAUAGCAGGGAAGUCAAGCUUCUGCAGGAGGGUCAGUCCAAGAACCCUCGUAUAAAAAUCCAGGGACUUCUUAGGAUCCUUAAUUCUUAGCAUCGUUUGCUGCAAUAGAAACAACAGAGGAUUGAGCAUCA
B10: chr7:23164667:23164668:+_ENSG00000122550_ENST00000322275|hu_mus|FALSE|FALSE (ssRNA)
RNA: GGGAGUUCUACAGUCCGACGAUCCACAGGUUCAAUCUGGUACUGAUUUGCUGCAUCUAACAAAGACUGAACAUUGUUGCUAUUCACAGAAAUUCUAGCAGUAUAAGCAAAUUCCACCAGUUGUUCAAUAAUAUCAGGUUCAGCCAACAGAGGAUUGAGCAUCA
B11: chr22:42032659:42032660:+_ENSG00000196419_ENST00000405878|hu_hu|FALSE|FALSE (ssRNA)
RNA: GGGAGUUCUACAGUCCGACGAUCGUCUUCAUUGGUGAACAGCAUGAUCCUCUUAUGACUCAUCUUGAAUUGGACAUCACUAAAGAGGUUGGCACAGACCCACAGCACUUCACUGAGUGAGUAGUCAGAUCCGUGGCCCAUCAUCAACAGAGGAUUGAGCAUCA
B12: chr1:220379288:220379289:-_ENSG00000118873_ENST00000358951|hu_mus|FALSE|FALSE (ssRNA)
RNA: GGGAGUUCUACAGUCCGACGAUCUGAUGCUGCAGCUUUUGCUACUUGGUUUCGACAGGCUCGAAGAGACUGAAAGAGACUAAAUCCAUCAAUCGUCACAAUGGCGGCUGGAUAUAAGAUGCUCAGUUCUUCAUUCUGCUCAGUCAACAGAGGAUUGAGCAUCA
B13: chr15:42709458:42709459:-_ENSG00000103994_ENST00000263805|hu_mus|FALSE|FALSE (ssRNA)
RNA: GGGAGUUCUACAGUCCGACGAUCGGAGGACAGAUAGGGGCCUGGAGAAGGACAGUGAACGGCCCAUGGGAGAAUUCUUCACUAAGGACUUCCCAACGUGGGAGGCAAAAAACUUCAUGAAUCUAUUUUGCUGUCAUCUUCAGCCAACAGAGGAUUGAGCAUCA
B14: chr2:114699772:114699773:+_ENSG00000115091_ENST00000536059|hu_hu|FALSE|FALSE (ssRNA)
RNA: GGGAGUUCUACAGUCCGACGAUCUGACCCAUCUGUAUCAUACUUGUUAAAUUCUUUUACUAAAUCUGGGCAGACAUAACUAUAGCGCUCCUUUACUGCCUUAGCAGUUUCCAAGGAUUGUUCUGGAGGGAUUCCUACUUCUCGCAACAGAGGAUUGAGCAUCA
B15: chr17:49039638:49039639:-_ENSG00000008294_ENST00000262013|hu_mus|motif|central (ssRNA)
RNA: GGGAGUUCUACAGUCCGACGAUCCAUUCCGAACCCCAGGGAUUCCAUAAUAGAAAUAAAUACUGAAAUAACUACAUUGCGGAAUGAGCUUUUUACGCAUAGAAAUGAAGCCGUGGCCUCUAAAGACAGCAAAUGGGACAAUUCCAACAGAGGAUUGAGCAUCA
B16: chr4:108954403:108954404:+_ENSG00000138796_ENST00000309522|hu_hu|motif|central (ssRNA)
RNA: GGGAGUUCUACAGUCCGACGAUCAGUAUCCAGUCCGACAUAAUCUAGAAGCUCAAAUGGGCCCAUGGGGUAACCGGCUCCGGAUUUCAUAGCAGUGUCAAUGUCUUCUUUGGAUGCGUCACCUCGUUCAUACAGCCUGAUUGCCAACAGAGGAUUGAGCAUCA
B17: chr2:125499325:125499326:+_ENSMUSG00000091337_ENSMUST00000164756|mus_hu|motif|central (ssRNA)
RNA: GGGAGUUCUACAGUCCGACGAUCGAGUUCUUCGGUCAGACGAUUGACAACCAUCAGUGAAAAAAGCUCUUCGAUAAAAGCGGACUGAUCAAACGGGGUCUUCUCAUAAUGCAUCUGAAACCCGCCAUCCAGGGCUGGUUCUCUCAACAGAGGAUUGAGCAUCA
B18: chr19:16212804:16212805:+_ENSG00000167460_ENST00000300933|hu_mus|hu_hu_hu_mus_False|48_108 (ssRNA)
RNA: GGGAGUUCUACAGUCCGACGAUCAACAAAUAUGCAAUGAAGGAAAGAUGUAACAUGGAACAGCAUUAAAGCUCAGUCAGAAGGCACGUGGGUAAUUAUGAUCACCCCAGCAUUCUCGCUUGGAAUGCUUAAAGACAAUCUGUUCAACAGAGGAUUGAGCAUCA
B19: chr14:66974463:66974464:+_ENSMUSG00000022044_ENSMUST00000074523|mus_hu|mus_mus_mus_hu_False|8_108 (ssRNA)
RNA: GGGAGUUCUACAGUCCGACGAUCUUGUAGGAUGAUUUAUUCAGGGGAUCGGCCAGGAAGCAGGAGCAGAACAAGGACACCAGCGGGAGCUCCUUCAUCUUCUCUUUGUAGGCAGCAAGGGUCAUGUUGGCUGGAAUUGGUGGCCAACAGAGGAUUGAGCAUCA
B20: chr6:114281168:114281169:-_ENSG00000196591_ENST00000368632|hu_hu|hu_hu_hu_mus_True|68_108 (ssRNA)
RNA: GGGAGUUCUACAGUCCGACGAUCUUCCAUUUUUCUGUAUAAACCAUAAUUUAGCAGCAAGUUAUGAGUCAUGCGGAUUCUAUGAGGCUUCAUGGGAUGACCCUGGCCAUAAUAAUAAUUGCCAAUAUCACCAUCAUAGUAGUACAACAGAGGAUUGAGCAUCA
B21: chr5:46091440:46091441:-_ENSMUSG00000015882_ENSMUST00000045586|mus_mus|FALSE|FALSE (ssRNA)
RNA: GGGAGUUCUACAGUCCGACGAUCGAUAACUUUACCACAAUGGGUAAUUUCUCUUCCUAAAUUUUUCUAUGUAGGAACACUAUUUUAUGAAUGAAUUCUAGAUUAGGGUGCUGCCCACACACACAUUAAUCAUGAAAGAUACAUCAACAGAGGAUUGAGCAUCA
B22: chr10:85912055:85912056:+_ENSG00000165678_ENST00000372134|hu_hu|FALSE|FALSE (ssRNA)
RNA: GGGAGUUCUACAGUCCGACGAUCUGAGUCACUUCAUUUCUUUCUGUUGCCUCCAGUUGCCAGCAUAGUUGCAACUCGCAUAAAUAUAUUUAAUGUAUCCAUGUAGAUACUCAGCAUCGAGUUAAUGGGAUCAUAUUUUUGAACCAACAGAGGAUUGAGCAUCA

The binders below were run against T1, UNK ZnF1-3 (assay: nsRBNS (natural sequence RNA bind-n-seq); RBNS binding buffer (assumed for nsRBNS): 25 mM Tris pH 7.5, 150 mM KCl, 3 mM MgCl2, 0.01% Triton X-100, 500 ug/ml BSA, 20 U/ml SUPERase-In, 4 C; UNK is unkempt and MSI1 is Musashi-1; names of the RNAs are library labels; protein concentration not given here; high values mean tight binding).

Binder | binding signal [enrichment R]
B1 | 0.692
B2 | 0.948
B3 | 0.85
B4 | 0.458
B5 | 1.19
B6 | 0.467
B7 | 0.898
B8 | 0.661
B9 | 0.759
B10 | 1.26
B11 | 1.27
B12 | 0.83
B13 | 1.46
B14 | 0.847
B15 | 1.77
B16 | 1.51
B17 | 0.801
B18 | 0.968
B19 | 2.51
B20 | 1.17
B21 | 0.531
B22 | 1.03
